The record followed here is PubChem BioAssay AID1508624 (National Center for Advancing Translational Sciences (NCATS), 2021).

The structures appear in SMILES notation. Among all 48,000 compounds or so, about 120 (0.25%) were called active. Inconclusive results (about 4%) are left out. Calls come from the whole dose curve; as a rule, active = well fitted activation curve with a large enough effect; inconclusive = small, poorly fitted or top-dose-only effect, or another doubt; inactive = no such curve, though single readings can be large or run the other way. The list shows a part of the results.

A short description of the experiment: Primary qHTS for Identification of Small Molecule Activators of Huntingtin-Antisense Promoter Activity. Note: nearly all actives have a fitted effect of over 55% in size. The settings on record: HEK293 HTT-AS promoter firefly luciferase reporter (activity 0% = vehicle and -100% = no light), 24 h; series mostly up to 57.5 µM; activity change, positive = activation: at the top concentration. A digest of the protocol:
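Firefly luciferase signal from promoter-reporter HEK293 cells was scaled between vehicle (0%) and zero RLU (-100%). Compounds were tested at final concentrations of up to 57.5 uM over 24 h at 37 degrees C. PTC124 at 50 uM final served as control inhibitor.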
In general terms: qHTS replaces the single test concentration by a dilution series.
With `Cc1ccc(CNC(=O)c2nnn(Cc3ccc(F)cc3)c2N)cc1`, the “activity change, positive = activation” value was inactive: -1.49%. Then `COc1ccc(OCc2ccc(-c3nc(C#N)c(N4CCC(C(N)=O)CC4)o3)o2)cc1`, with inactive: -15.1%.

As for `CC(=O)c1cccc(NC(=O)Cn2c(=O)oc3cc(S(=O)(=O)NCc4ccccc4)ccc32)c1`, the “activity change, positive = activation” value was inactive: -15.4%. In the case of `O=S(=O)(Nc1ccc(F)cc1F)c1ccc(Br)s1` it was inactive: -31.3%.

As to `CCn1c2c(c(=O)n3ncc(C(=O)Nc4ccc(OC(F)(F)F)cc4)c13)CN(Cc1ccc(OC)cc1)CC2`, the “activity change, positive = activation” value was inactive: -11%. In the case of `Fc1ccc(CNc2ncnc3ccc(F)cc23)cc1` it was inactive: -91.6%; in that of `O=S(=O)(N=Cc1c(O)ccc2ccccc12)c1cccs1`, inactive: 29%.

As for `Fc1ccc([C@@H]2Nc3ccccc3[C@@H]3C=CC[C@@H]32)cc1`, the “activity change, positive = activation” value is inactive: -16.5%. As for `Cc1ccc(C)c(NC(=O)CSc2ncc3c(n2)-c2ccccc2N(Cc2ccccc2C)S3(=O)=O)c1`, the “activity change, positive = activation” value was inactive: 25%. Then `O=C(Cn1cc(S(=O)(=O)c2ccc(Cl)cc2)c(=O)c2ccccc21)Nc1ccc2c(c1)OCO2`, with inactive: -32.3%.

Turning to `COc1ccc(/C=C/c2nc(C#N)c(N3CCCCCC3)o2)cc1OC`, the “activity change, positive = activation” value was inactive: -20.4%.

Turning to `COc1ccc(CNS(=O)(=O)c2ccc3c(c2)NC(=O)C(C)C(=O)N3)cc1` (stereo not drawn), the “activity change, positive = activation” value is inactive: -15.3%. Then `Cc1nnc(N2CCC(C(=O)N3CCCCC3)CC2)c2nn(-c3ccccc3)c(C)c12`, with inactive: -12.4%.

On to `Cc1ccc(C)c(S(=O)(=O)Nc2ccc3c(c2)CCCN3C(=O)c2cccs2)c1`, for which the “activity change, positive = activation” value was inactive: -23.6%. Regarding `COc1ccc(C)cc1NS(=O)(=O)c1ccc(-c2cnc(C3CC3)o2)cc1`, the “activity change, positive = activation” value is inactive: -54.4%. Then `COc1ccc(CNc2n[nH]c(-c3ccco3)n2)cc1OC`, with inactive: -5.58%; and `CCc1ccc(Nc2ncnc3sc4c(c23)CCCC4)cc1`, with inactive: -32.9%; and `COc1cc(NC(=O)Cn2c(=O)n(Cc3ccccc3Cl)c(=O)c3cc(OC)c(OC)cc32)cc(OC)c1`, with inactive: -13.4%. Then `CCCN(C(=O)c1cc2c(=O)n(CC)c3ccccc3c2s1)c1ccccc1F`, with inactive: -0.908%; and `CCCc1c(C(=O)OCC)nnc2c(-c3ccccc3)c(C)nn12`, with inactive: -11.9%; and `COc1ccc(CCN2C(=O)N(c3ccc(F)cc3)C(=O)C2CC(=O)Nc2ccccc2)cc1OC` (stereo not drawn), with inactive: 18.4%. Then `O=C(Nc1ccc(F)c(F)c1)c1cc(S(=O)(=O)NCc2ccc3c(c2)OCO3)ccc1F`, with inactive: -27.1%; and `CCOC(=O)c1nn2c(C(F)(F)F)cc(-c3ccc(C)cc3)nc2c1Cl`, with inactive: -13.8%. For `CCCCC(=O)Nc1nnc(SCc2cc(=O)n3cc(C)ccc3n2)s1`, the “activity change, positive = activation” value was inactive: 3.19%.

As to `COc1ccc(-c2c(C#N)c(SCC(=O)Nc3ccc(C)cc3)nc(C)c2C(=O)Nc2ccccc2)cc1`, the “activity change, positive = activation” value was inactive: 6.94%. Then `Cc1ccc(CNC(=O)CSc2nc(=O)n(Cc3ccco3)c3c2CCC3)cc1`, with inactive: -9.14%; and `CC(C)(C)NCC(O)c1ccc(O)c(CO)c1` (stereo not drawn), with “inactive”; and `COc1ccc(C2=NC3(CCCCCC3)N(CC(=O)Nc3cccc(Cl)c3)C2=O)cc1`, with inactive: -64%. For `Cc1ccn2c(Nc3ccc4c(c3)OCO4)c(-c3ccc(Cl)cc3)nc2c1`, the “activity change, positive = activation” value was inactive: 1.53%. `COc1cccc(CNC(=O)CN2CCCN(Cc3ccccc3)S2(=O)=O)c1`: the “activity change, positive = activation” value was inactive: -14.1%. For the compound `Cc1ccc2c(c1)cc1c(=O)n(CC(=O)NC(C)CCc3ccccc3)nc(C)n12` (stereo not drawn), the “activity change, positive = activation” value was inactive: -0.95%. Then `O=C(NCc1cccs1)c1ccc(CSc2nc3cccnc3n2Cc2ccc(F)cc2)cc1`, with inactive: -23.9%; and `Cn1c2c(c(=O)n(C)c1=O)C(c1ccccc1[N+](=O)[O-])CC(=O)N2` (stereo not drawn), with inactive: -9.54%.

For the compound `COc1ccc(-c2nn(-c3ccc(F)cc3)c3c2cnc2cc4c(cc23)OCO4)cc1`, the “activity change, positive = activation” value was inactive: -3.15%.

Take `COc1ccccc1CNc1ccc(-c2nc(-c3ccccc3C)no2)cc1[N+](=O)[O-]`: the “activity change, positive = activation” value was inactive: -6.74%.

Take `CCc1ccccc1NC(=O)CSc1nc2n[nH]c(C)c2c(=N)n1-c1cccc(C)c1`: the “activity change, positive = activation” value was inactive: -41.6%. Then `Cc1cc(C)cc(NC(=O)C2CCN(C(=O)c3cnn(-c4ccccc4)c3-n3cccc3)CC2)c1`, with inactive: -38.5%; and `CC1CCn2c(nc3cc(C(=O)NCc4ccc(F)cc4)ccc32)C1` (stereo not drawn), with inactive: 0.753%; and `CCC(C(=O)Nc1ccccc1)n1nc(-c2cc(C)ccc2C)ccc1=O` (stereo not drawn), with inactive: -27.8%. With `Cc1cccc(NC(=O)C2CCCN(S(=O)(=O)c3c(C)n[nH]c3C)C2)c1` (stereo not drawn), the “activity change, positive = activation” value was inactive: -20.4%.

Regarding `CCN1C(=O)N(c2ccc(C(C)=O)cc2)S(=O)(=O)c2ccccc21`, the “activity change, positive = activation” value was inactive: -6.97%.

On to `CSc1ccc(CCNC(=O)Cn2ncn3c(cc4ccccc43)c2=O)cc1`, for which the “activity change, positive = activation” value was inactive: 0.0451%.

Take `Cc1ccc(CN2C(=O)C(=O)c3cc(Br)cc(C)c32)cc1`: the “activity change, positive = activation” value is inactive: -33.3%. In the case of `Cc1ccccc1Nc1c(-c2cccnc2)nc2cccc(C)n12` it was inactive: -19.2%.

Turning to `CCOc1ccc(-n2c(=O)c3c(C)c(C)sc3n(CC(=O)Nc3ccc(CC)cc3)c2=O)cc1`, the “activity change, positive = activation” value is inactive: -19.5%. With `CCN(C(=O)c1cc2c(=O)n(CC)c3ccccc3c2s1)c1cccc(C(F)(F)F)c1`, the “activity change, positive = activation” value is inactive: -12.5%. In the case of `Cn1nc(-c2ccc(OCC(=O)Nc3ccc(Cl)cc3)cc2)c2ccccc2c1=O` it was inactive: -22.9%; in that of `COc1ccc(Br)cc1CNC(=O)c1cnc2sc(N3CCCCCC3)nn2c1=O`, inactive: -36.6%.
